Measurements reported in the supplement of paper PMC3334620.
The full ranking holds about 33,000 sequences; the median of “E-score (-0.5 to 0.5)” is about -0.012, and the highest 2% start at about 0.27. The list shows a part of the results.

Molecular target: T1, Vhr1 (UniProt P40522)
T1 sequence: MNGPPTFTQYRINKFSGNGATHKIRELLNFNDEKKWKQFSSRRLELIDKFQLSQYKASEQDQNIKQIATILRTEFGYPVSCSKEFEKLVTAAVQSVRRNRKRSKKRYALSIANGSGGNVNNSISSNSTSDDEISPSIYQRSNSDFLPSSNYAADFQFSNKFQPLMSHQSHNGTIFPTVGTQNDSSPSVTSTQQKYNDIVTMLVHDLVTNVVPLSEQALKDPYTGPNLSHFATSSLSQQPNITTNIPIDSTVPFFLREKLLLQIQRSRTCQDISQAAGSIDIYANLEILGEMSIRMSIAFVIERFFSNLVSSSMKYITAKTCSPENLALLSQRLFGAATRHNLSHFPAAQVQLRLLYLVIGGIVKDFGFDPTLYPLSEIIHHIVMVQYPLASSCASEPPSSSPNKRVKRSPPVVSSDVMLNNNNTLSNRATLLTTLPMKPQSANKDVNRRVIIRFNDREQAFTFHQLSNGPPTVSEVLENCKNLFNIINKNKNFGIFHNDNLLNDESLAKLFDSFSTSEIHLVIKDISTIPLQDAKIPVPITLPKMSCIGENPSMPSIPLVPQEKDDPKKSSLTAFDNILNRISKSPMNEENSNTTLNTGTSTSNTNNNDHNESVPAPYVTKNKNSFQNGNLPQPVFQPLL
Assay: PBM E-score (8-mer binding enrichment) (E-score (-0.5 to 0.5)); higher = stronger / more preferred TF binding; most listed sequences are background and not binding sites
Details: protein concentration: 200 nM; construct: GST-full length
How it was run: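 Masliner-normalised scans of fluorescent anti-GST signal were the basis for scoring. That signal came from GST-tagged yeast transcription factors applied at about 100-200 nM to double-stranded universal all-10-mer Agilent arrays on fresh or once-stripped slides. Each ungapped eight-base word, pooled with its reverse complement, received an E-score from the Universal PBM Analysis Suite.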

Sequence	PBM E-score
ACCCCGGT	-0.0315
CTGGAGCC	0.00223
AATGGGGT	0.174
CGTAGTTC	-0.271
GGTTAAAC	-0.104
GCCGAGGC	0.147
ATTTGGGC	-0.0613
CGAGCACG	-0.0435
AGCGAGAT	0.153
ATCGCTTC	-0.056
CTTAAGGC	-0.172
GCAAACCA	0.218
GACGTCTC	-0.0562
GAGTGAAA	-0.142
TCCAACCA	0.114
ATCTAGGG	-0.0322
ATCGTGCC	-0.0704
CAGATCTC	0.115
AGGCTCCC	0.0362
ACCAAAAA	0.0817
AACCAAAC	-0.00189
AGCACACC	0.0914
ATTTAGGC	-0.0624
AAGCAAAG	-0.215
AGATGCCC	-0.0865

Sequence	PBM E-score
CTGTGTCA	0.161
GCAGTAGA	-0.164
ACTTTCTG	-0.0287
CGACGAAC	0.0153
CGCTTATA	0.089
CGTCTTTC	-0.243
CTCTCCAC	-0.179
ACGTTTCT	-0.177
GCGAATGA	0.229
AATCCAAC	0.0468
CACCTCTG	-0.0319
ACGACCCT	-0.139
AGGTGGTA	-0.0142
CCTATTAC	0.0699
CGCGATCA	0.184
AGACTCCC	-0.00382
TGCCTCAA	-0.0451
ACCGCGGC	0.0296
CAACCTGC	0.102
ACTACCGC	-0.104
AAGGCTCG	-0.297
CCCTTCGG	-0.0928
AGACTCCT	0.186
ATCTAGGC	-0.0831
TCACGAAA	0.0488

Sequence	PBM E-score
ACGCTTCG	-0.0398
CGCCGGCC	-0.152
CACTCCAC	0.0458
AAGCCAAT	-0.00411
CACAGGCG	0.0476
TAACAAAA	-0.0804
TCGTTGCA	-0.0623
GGCCACAC	0.0109
ACATTGTA	0.134
AATGCTTG	-0.127
TTGCTAAA	-0.222
GTCCGCCA	0.083
GCAGATGC	-0.137
GCTCCCAA	-0.103
AAACGTGA	-0.079
AGCAGTTG	0.0572
CATTTCAG	0.0121
GCCGCAGA	-0.0902
GCTCGCCA	-0.038
ACTGGTAA	0.0863
CAAGGGTA	-0.0422
CGATTGTA	0.141
ATTGCCTC	0.0199
AACACACG	0.00318
TGCACCAA	-0.181

Sequence	PBM E-score
TATGTTCA	0.0382
AGGCTGCC	-0.0191
CATACACC	0.101
AACGTTGA	-0.0968
AGAGTTGC	-0.153
GGAAACAC	0.0508
ACGTGGCT	0.0777
GCAAGGCA	-0.172
CTCGATTA	0.216
CGGGCGTC	0.0249
CGGAGAGC	-0.142
AGCTAAAT	-0.161
GAAAACTA	-0.0593
ATATGGCC	-0.14
CAAGCCTC	0.0384
TTCAGAAA	-0.29
AACAGGCC	-0.23
ATGTAATG	0.131
CCAAACCC	0.0097
CGGGGCGC	-0.196
ACGGCGGG	0.167
GGAGCAAA	-0.0129
CACGGAGA	-0.046
AACATGTT	-0.00334
CGGGCACA	0.0216

Sequence	PBM E-score
GCCGATAA	-0.285
CTCCAGGA	0.0194
CGACCGCC	0.108
TAAAATCA	0.0622
ACCTCAAT	-0.082
TAATTGGA	-0.0119
AAGTTTCG	-0.105
AAGTGATA	-0.14
AGTACTTG	-0.0003
CGAATATA	-0.0292
CGATCAGA	-0.0338
CTAACAAC	0.0793
ACGTATAG	0.0467
AACTTACC	-0.0137
GACTAAAA	0.0237
AGTCCCTA	-0.0461
GGGTCAAA	0.0941
ATGCGCAG	-0.0631
ATAGGATA	-0.0225
GTTTCCAA	-0.0854
GCAATTTA	0.0086
AGAGTGCC	-0.268
CGGCGGAG	0.0583
CTAAGGGC	-0.19
TATGATAA	0.117

Sequence	PBM E-score
AAACGCAT	-0.141
TCGGGAAA	0.0834
GTCTAATA	-0.214
ATAATCAA	0.0618
CCATCCGA	0.153
ATTTGACA	-0.00873
ATGCGGCA	-0.0033
GATCGCTA	-0.142
GCACTGGA	0.0423
AAAGTAGA	-0.198
CTCGACGA	-0.101
CCTGCTCG	-0.128
CTCAGGGA	-0.0411
GCCAATCC	0.0162
AGAAACCG	0.0625
GTCTGATA	-0.0684
GCAGGGGC	-0.189
CGGATAAA	0.00446
CCCGACTA	0.206
TATTGGAA	-0.313
ACTTTACA	0.0981
AGGCTCGG	-0.0702
ATTGCCGG	-0.162
CAGCGCAC	-0.152
CGCTCTAC	-0.0251

Sequence	PBM E-score
ATTACCCG	-0.0973
ATGCTTCC	-0.023
ACACGGCA	-0.0102
CTCCGCTC	0.0398
ACACCTGA	0.23
ACAGGCAG	0.139
GTTAGCGA	-0.0989
AAGGAATC	-0.0238
CACTGACA	0.0987
CTGTTCAC	0.0692
CATCAATG	0.0555
CTCCGGTA	-0.0727
AAAGTCTG	-0.307
TCAGCTCA	0.135
GTTGTGCA	-0.0995
AACTTCGT	-0.154
CCCACCCG	0.382
GTTTTTGA	-0.00048
ATGTACTC	-0.0243
ACCCAATG	0.0548
ACGGCATC	-0.115
GCCTTCTA	-0.234
